Experimental findings from paper PMC10020501 are described below.

No constants are given. Whether binding was seen depends on the method and setting. Binding seen in cells or lysates may run through a third protein. Some results given as binding are weak or reduced against the parent protein; the word gives no strength. Sequences can lack the tags named with a protein.

Assay in all cases: co-IP; Flag-tagged TBK1 variants precipitated with anti-Flag M2 magnetic agarose beads from lysates of TBK1-deficient THP1-Dual cells; TAP lysis buffer (100 mM NaCl, 50 mM Tris/HCl, 1.5 mM MgCl2, 5% glycerol, 0.5% IGEPAL CA-630, pH 7.5), 4 h at 4°C; elution with 3× Flag peptide; endogenous partners detected by immunoblot
(In general: A western blot detects proteins with antibodies after separation by electrophoresis.)

For test [1], the target named is T1, Flag-tagged TBK1 WT (TANK-binding kinase 1) (human) (UniProt Q9UHD2).
T1 sequence: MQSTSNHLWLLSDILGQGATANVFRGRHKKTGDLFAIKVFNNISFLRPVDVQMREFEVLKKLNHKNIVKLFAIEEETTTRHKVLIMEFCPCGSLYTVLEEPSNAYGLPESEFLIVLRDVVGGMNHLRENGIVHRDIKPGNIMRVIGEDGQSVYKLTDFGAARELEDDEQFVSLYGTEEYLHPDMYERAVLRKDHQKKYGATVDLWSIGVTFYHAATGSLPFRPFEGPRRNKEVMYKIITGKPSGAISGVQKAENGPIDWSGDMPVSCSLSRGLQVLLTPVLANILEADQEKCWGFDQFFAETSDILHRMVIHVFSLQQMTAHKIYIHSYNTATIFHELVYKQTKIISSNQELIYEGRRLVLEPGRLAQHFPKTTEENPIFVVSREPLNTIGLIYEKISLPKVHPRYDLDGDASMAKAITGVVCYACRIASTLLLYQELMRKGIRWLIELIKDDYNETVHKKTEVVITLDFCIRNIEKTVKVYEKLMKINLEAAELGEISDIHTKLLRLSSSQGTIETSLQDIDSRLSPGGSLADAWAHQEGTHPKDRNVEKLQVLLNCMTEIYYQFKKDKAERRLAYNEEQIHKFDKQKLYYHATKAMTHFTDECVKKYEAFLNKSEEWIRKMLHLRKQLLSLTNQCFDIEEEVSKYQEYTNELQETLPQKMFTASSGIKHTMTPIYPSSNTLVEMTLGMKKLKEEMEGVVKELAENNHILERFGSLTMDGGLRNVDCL

The target in test [2] is T2, Flag-tagged TBK1 L693A (human) (UniProt Q9UHD2).
T2 sequence: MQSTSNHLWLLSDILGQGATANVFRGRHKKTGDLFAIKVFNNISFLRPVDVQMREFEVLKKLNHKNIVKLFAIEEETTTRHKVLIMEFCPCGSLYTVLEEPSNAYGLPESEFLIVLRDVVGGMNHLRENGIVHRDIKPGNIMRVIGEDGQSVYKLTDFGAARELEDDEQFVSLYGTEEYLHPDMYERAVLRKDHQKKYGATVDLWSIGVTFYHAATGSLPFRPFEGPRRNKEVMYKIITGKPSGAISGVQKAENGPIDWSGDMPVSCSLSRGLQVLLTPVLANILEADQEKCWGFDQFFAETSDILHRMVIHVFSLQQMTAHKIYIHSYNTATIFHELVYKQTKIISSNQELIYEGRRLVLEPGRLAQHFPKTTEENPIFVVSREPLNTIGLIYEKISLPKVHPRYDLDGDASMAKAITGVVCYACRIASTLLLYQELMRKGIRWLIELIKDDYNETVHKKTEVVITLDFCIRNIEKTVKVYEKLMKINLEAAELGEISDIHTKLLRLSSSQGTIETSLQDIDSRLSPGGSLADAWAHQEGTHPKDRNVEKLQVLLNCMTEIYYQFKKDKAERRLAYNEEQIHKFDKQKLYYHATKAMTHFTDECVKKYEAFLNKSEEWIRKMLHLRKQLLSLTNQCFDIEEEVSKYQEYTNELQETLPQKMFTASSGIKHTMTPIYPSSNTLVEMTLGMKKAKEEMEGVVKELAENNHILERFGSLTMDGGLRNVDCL

Test [3] deals with T3, Flag-tagged TBK1 K694E (human) (UniProt Q9UHD2).
T3 sequence: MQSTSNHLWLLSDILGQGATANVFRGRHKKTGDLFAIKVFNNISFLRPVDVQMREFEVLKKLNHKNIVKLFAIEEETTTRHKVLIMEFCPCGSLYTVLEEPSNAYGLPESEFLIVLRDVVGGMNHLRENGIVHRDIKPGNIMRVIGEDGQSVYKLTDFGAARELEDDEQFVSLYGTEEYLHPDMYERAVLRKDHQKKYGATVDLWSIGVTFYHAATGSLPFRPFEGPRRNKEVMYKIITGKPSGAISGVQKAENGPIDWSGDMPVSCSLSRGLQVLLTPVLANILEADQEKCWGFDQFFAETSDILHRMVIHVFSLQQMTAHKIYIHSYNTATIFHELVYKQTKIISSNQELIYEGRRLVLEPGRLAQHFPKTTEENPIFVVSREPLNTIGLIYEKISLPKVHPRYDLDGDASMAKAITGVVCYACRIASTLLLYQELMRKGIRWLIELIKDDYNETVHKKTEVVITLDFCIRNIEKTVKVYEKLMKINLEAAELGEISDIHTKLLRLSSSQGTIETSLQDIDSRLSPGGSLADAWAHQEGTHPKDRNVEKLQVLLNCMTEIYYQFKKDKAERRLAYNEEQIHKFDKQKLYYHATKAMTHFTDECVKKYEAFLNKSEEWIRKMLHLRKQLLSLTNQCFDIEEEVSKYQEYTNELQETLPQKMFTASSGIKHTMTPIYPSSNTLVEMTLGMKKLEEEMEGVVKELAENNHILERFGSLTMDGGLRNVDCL

Test [4] has as its target T4, Flag-tagged TBK1 L704A (human) (UniProt Q9UHD2).
T4 sequence: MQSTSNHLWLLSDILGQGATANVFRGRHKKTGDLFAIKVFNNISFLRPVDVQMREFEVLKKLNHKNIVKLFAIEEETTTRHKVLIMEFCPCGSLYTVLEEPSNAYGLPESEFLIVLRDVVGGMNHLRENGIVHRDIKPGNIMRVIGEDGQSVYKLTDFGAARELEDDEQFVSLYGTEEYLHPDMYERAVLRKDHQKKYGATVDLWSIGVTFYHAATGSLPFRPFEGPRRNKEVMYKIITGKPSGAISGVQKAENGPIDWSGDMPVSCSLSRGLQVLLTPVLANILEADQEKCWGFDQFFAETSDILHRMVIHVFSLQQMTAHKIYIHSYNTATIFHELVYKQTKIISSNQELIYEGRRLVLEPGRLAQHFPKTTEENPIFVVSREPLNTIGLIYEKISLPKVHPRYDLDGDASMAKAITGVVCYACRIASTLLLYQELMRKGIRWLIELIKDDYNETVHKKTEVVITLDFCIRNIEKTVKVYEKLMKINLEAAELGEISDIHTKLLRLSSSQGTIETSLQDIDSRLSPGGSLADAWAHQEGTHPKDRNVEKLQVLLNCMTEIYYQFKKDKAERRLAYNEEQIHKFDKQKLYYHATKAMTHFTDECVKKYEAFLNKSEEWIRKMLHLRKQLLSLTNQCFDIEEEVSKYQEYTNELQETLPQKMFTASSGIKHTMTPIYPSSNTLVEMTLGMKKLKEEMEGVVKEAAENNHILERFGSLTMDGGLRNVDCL

B1: TRAF family member-associated NF-κB activator (TANK) (protein, UniProt Q92844 1-425)
chain: MDKNIGEQLNKAYEAFRQACMDRDSAVKELQQKTENYEQRIREQQEQLSLQQTIIDKLKSQLLLVNSTQDNNYGCVPLLEDSETRKNNLTLDQPQDKVISGIAREKLPKVRRQEVSSPRKETSARSLGSPLLHERGNIEKTFWDLKEEFHKICMLAKAQKDHLSKLNIPDTATETQCSVPIQCTDKTDKQEALFKPQAKDDINRGAPSITSVTPRGLCRDEEDTSFESLSKFNVKFPPMDNDSTFLHSTPERPGILSPATSEAVCQEKFNMEFRDNPGNFVKTEETLFEIQGIDPIASAIQNLKTTDKTKPSNLVNTCIRTTLDRAACLPPGDHNALYVNSFPLLDPSDAPFPSLDSPGKAIRGPQQPIWKPFPNQDSDSVVLSGTDSELHIPRVCEFCQAVFPPSITSRGDFLRHLNSHFNGET
Consider B1, for which the binding result is listed as “binds” in test [1], “no binding” in test [2], “no binding” in test [3] and “no binding” in test [4].

B2: IκB kinase ϵ (IKKϵ), endogenous (enzyme, UniProt Q14164 1-716)
chain: MQSTANYLWHTDDLLGQGATASVYKARNKKSGELVAVKVFNTTSYLRPREVQVREFEVLRKLNHQNIVKLFAVEETGGSRQKVLVMEYCSSGSLLSVLESPENAFGLPEDEFLVVLRCVVAGMNHLRENGIVHRDIKPGNIMRLVGEEGQSIYKLTDFGAARELDDDEKFVSVYGTEEYLHPDMYERAVLRKPQQKAFGVTVDLWSIGVTLYHAATGSLPFIPFGGPRRNKEIMYRITTEKPAGAIAGAQRRENGPLEWSYTLPITCQLSLGLQSQLVPILANILEVEQAKCWGFDQFFAETSDILQRVVVHVFSLSQAVLHHIYIHAHNTIAIFQEAVHKQTSVAPRHQEYLFEGHLCVLEPSVSAQHIAHTTASSPLTLFSTAIPKGLAFRDPALDVPKFVPKVDLQADYNTAKGVLGAGYQALRLARALLDGQELMFRGLHWVMEVLQATCRRTLEVARTSLLYLSSSLGTERFSSVAGTPEIQELKAAAELRSRLRTLAEVLSRCSQNITETQESLSSLNRELVKSRDQVHEDRSIQQIQCCLDKMNFIYKQFKKSRMRPGLGYNEEQIHKLDKVNFSHLAKRLLQVFQEECVQKYQASLVTHGKRMRVVHETRNHLRLVGCSVAACNTEAQGVQESLSKLLEELSHQLLQDRAKGAQASPPPIAPYPSPTRKDLLLHMQELCEGMKLLASDLLDNNRIIERLNRVPAPPDV
B2: the binding result in test [1], in test [2], in test [3] and in test [4] was “binds” throughout.
